Target: the molecule itself
Test: SEC

B1: EccA1 ATPase, wild type (enzyme)
chain: MTDRLASLFESAVSMLPMSEARSLDLFTEITNYDESACDAWIGRIRCGDTDRVTLFRAWYSRRNFGQLSGSVQISMSTLNARIAIGGLYGDITYPVTSPLAITMGFAACEAAQGNYADAMEALEAAPVAGSEHLVAWMKAVVYGAAERWTDVIDQVKSAGKWPDKFLAGAAGVAHGVAAANLALFTEAERRLTEANDSPAGEACARAIAWYLAMARRSQGNESAAVALLEWLQTTHPEPKVAAALKDPSYRLKTTTAEQIASRADPWDPGSVVTDNSGRERLLAEAQAELDRQIGLTRVKNQIERYRAATLMARVRAAKGMKVAQPSKHMIFTGPPGTGKTTIARVVANILAGLGVIAEPKLVETSRKDFVAEYEGQSAVKTAKTIDQALGGVLFIDEAYALVQERDGRTDPFGQEALDTLLARMENDRDRLVVIIAGYSSDIDRLLETNEGLRSRFATRIEFDTYSPEELLEIANVIAAADDSALTAEAAENFLQAAKQLEQRMLRGRRALDVAGNGRYARQLVEASEQCRDMRLAQVLDIDTLDEDRLREINGSDMAEAIAAVHAHLNMRE
- stoichiometry N: 6

Reference: publication doi:10.1101/2021.09.24.461649 (bioRxiv, 2021)
